The other results are listed elsewhere or left out. Values were computed here from the reads of four pooled replicates and scatter widely.
These sequences were tested against T1, Pho4 (S. cerevisiae) (UniProt P07270) (assay: relative binding free energy (BET-seq); higher = weaker binding). Conditions: reference: library average.
T1 sequence: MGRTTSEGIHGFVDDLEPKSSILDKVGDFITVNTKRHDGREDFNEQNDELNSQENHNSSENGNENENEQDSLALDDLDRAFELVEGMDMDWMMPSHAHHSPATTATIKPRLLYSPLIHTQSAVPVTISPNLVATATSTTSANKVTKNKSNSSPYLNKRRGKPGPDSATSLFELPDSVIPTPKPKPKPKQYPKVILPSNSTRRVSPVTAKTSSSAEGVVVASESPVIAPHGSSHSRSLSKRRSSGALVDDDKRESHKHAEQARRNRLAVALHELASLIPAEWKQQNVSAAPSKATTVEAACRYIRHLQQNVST

Row | Sequence | relative binding free energy
1 | TCAGACACGTGGTGAG | 0.03 kcal/mol
2 | TTAGTCACGTGTGTAT | 0.22 kcal/mol
3 | GTATTCACGTGTTAAT | 0.33 kcal/mol
4 | GGGTTCACGTGACGGC | 0.46 kcal/mol
5 | ATGCTCACGTGTCGGG | 0.21 kcal/mol
6 | CGTTTCACGTGATTTC | 0.48 kcal/mol
7 | TGTATCACGTGGTGCG | 0.05 kcal/mol
8 | TACGGCACGTGGTATG | -0.21 kcal/mol
9 | TGCGTCACGTGGCGGT | -0.03 kcal/mol
10 | TGTGGCACGTGTGAGT | 0.05 kcal/mol
11 | TACGGCACGTGAGTAT | 0.23 kcal/mol
12 | GTGGCCACGTGGGGCT | -0.25 kcal/mol
13 | TTTCGCACGTGGAGGA | 0 kcal/mol
14 | TAGGACACGTGTAGGG | 0.07 kcal/mol
15 | TGTTTCACGTGAATGG | 0.41 kcal/mol
16 | AATTACACGTGTTCTT | 0.11 kcal/mol
17 | GTGCTCACGTGGATAT | 0.31 kcal/mol
18 | GTTTCCACGTGGGGGC | 0.01 kcal/mol
19 | TGAGTCACGTGCTGAG | 0.02 kcal/mol
20 | TTTGCCACGTGAAAAG | 0.3 kcal/mol
21 | AGTCGCACGTGGGGAT | -0.2 kcal/mol
22 | TATATCACGTGTTTTG | 0.14 kcal/mol
23 | TCTTTCACGTGGGTGT | 0.17 kcal/mol

Row | Sequence | relative binding free energy
24 | TTAGTCACGTGTGTGT | 0.15 kcal/mol
25 | TCTGTCACGTGGGATT | 0.08 kcal/mol
26 | GGAGCCACGTGGATGT | 0 kcal/mol
27 | ATTTTCACGTGTTATG | 0.18 kcal/mol
28 | GATCACACGTGGTGTG | 0.09 kcal/mol
29 | ATGGTCACGTGGGGCA | 0 kcal/mol
30 | TTTGGCACGTGGGCAT | -0.26 kcal/mol
31 | TGAAGCACGTGGTCTT | -0.08 kcal/mol
32 | TCTGTCACGTGGATGG | 0.04 kcal/mol
33 | CGTGTCACGTGCCGGG | -0.05 kcal/mol
34 | TAATGCACGTGTGCGA | -0.05 kcal/mol
35 | TTGATCACGTGGTCGG | 0.05 kcal/mol
36 | TAACTCACGTGTGTTG | 0.21 kcal/mol
37 | AAGATCACGTGTTATT | 0.06 kcal/mol
38 | GTTCGCACGTGGGTGA | -0.21 kcal/mol
39 | GTGAGCACGTGGTAGG | -0.15 kcal/mol
40 | TGGGGCACGTGGCCGA | -0.17 kcal/mol
41 | ATGTTCACGTGTGTAC | 0.17 kcal/mol
42 | TTTTTCACGTGGCTGG | 0.29 kcal/mol
43 | GGTATCACGTGTAGCA | 0.15 kcal/mol
44 | GGTCACACGTGGGGGC | 0.02 kcal/mol
45 | GTCTGCACGTGGTTCG | 0.04 kcal/mol
46 | GGATGCACGTGGTGAG | -0.02 kcal/mol

Row | Sequence | relative binding free energy
47 | CATGACACGTGGGTGT | -0.26 kcal/mol
48 | AGCTGCACGTGTTTTT | 0.02 kcal/mol
49 | GAGTGCACGTGAGGTT | 0.45 kcal/mol
50 | GAGGACACGTGGTTTA | 0.14 kcal/mol
51 | TGTCACACGTGATTAT | 0.18 kcal/mol
52 | TGGTTCACGTGGGGGA | 0.22 kcal/mol
53 | TTTGTCACGTGTGCGG | 0.21 kcal/mol
54 | GGTGGCACGTGAGGAA | 0.14 kcal/mol
55 | CAGGTCACGTGTGAGA | 0.12 kcal/mol
56 | ATATTCACGTGGGTGT | 0.2 kcal/mol
57 | GCAGGCACGTGTGTTG | 0.04 kcal/mol
58 | TGGGGCACGTGATGGA | -0.01 kcal/mol
59 | TATATCACGTGTGGAA | 0.07 kcal/mol
60 | TTCGGCACGTGGTTCT | -0.03 kcal/mol
61 | TCGGGCACGTGAGGAG | 0.04 kcal/mol
62 | ATGCTCACGTGATTGT | 0.32 kcal/mol
63 | GATTTCACGTGGGGCG | 0.29 kcal/mol
64 | AACGTCACGTGCGGGT | -0.01 kcal/mol
65 | AGTGCCACGTGTGTTA | -0.18 kcal/mol
66 | GTTTTCACGTGTTTAT | 0.46 kcal/mol
67 | TATATCACGTGTAGTA | 0.12 kcal/mol
68 | TAGAGCACGTGATAGG | -0.14 kcal/mol
69 | TATGGCACGTGCATAG | -0.18 kcal/mol

Row | Sequence | relative binding free energy
70 | GCGGGCACGTGCTTTG | -0.07 kcal/mol
71 | ATATTCACGTGTTGGG | 0.24 kcal/mol
72 | TATGTCACGTGCGGTC | 0.12 kcal/mol
73 | ATGTTCACGTGCATTT | 0.28 kcal/mol
74 | TGTAACACGTGCTTGT | -0.11 kcal/mol
75 | AAGGTCACGTGGGACG | -0.02 kcal/mol
76 | GTCGGCACGTGTGGGC | -0.01 kcal/mol
77 | AAGTGCACGTGTAGTA | 0.01 kcal/mol
78 | GTTTTCACGTGGAAAG | 0.35 kcal/mol
79 | AATCACACGTGTTGGG | 0.07 kcal/mol
80 | AAAAGCACGTGAAGTG | 0.32 kcal/mol
81 | ATATGCACGTGAGGTG | 0 kcal/mol
82 | TGTGACACGTGTCCGG | -0.12 kcal/mol
83 | GATGCCACGTGATGTG | 0.1 kcal/mol
84 | TGCTGCACGTGCATGT | -0.03 kcal/mol
85 | GAATGCACGTGGGGTC | -0.13 kcal/mol
86 | TGGGACACGTGGTATT | -0.03 kcal/mol
87 | CGGCTCACGTGGGTGA | 0.04 kcal/mol
88 | TTTTTCACGTGTTTCC | 0.31 kcal/mol
89 | TGGCCCACGTGTGGGG | -0.13 kcal/mol
90 | TGGGACACGTGGTGTA | -0.1 kcal/mol
91 | AGTAGCACGTGTGCGT | -0.07 kcal/mol
92 | GGTATCACGTGATCAT | 0.4 kcal/mol

Row | Sequence | relative binding free energy
93 | ACTTGCACGTGTAGGA | 0.01 kcal/mol
94 | TTTAACACGTGATAAT | 0.34 kcal/mol
95 | AAGCGCACGTGGCAGT | 0.01 kcal/mol
96 | GGGGCCACGTGAGGAT | 0.33 kcal/mol
97 | GGGTTCACGTGTGAAT | 0.41 kcal/mol
98 | TGCTTCACGTGAGAAT | 0.48 kcal/mol
99 | GTGAGCACGTGTTTGC | -0.02 kcal/mol
100 | CTAAGCACGTGTTGAG | 0.04 kcal/mol
101 | AAGTACACGTGTTGGA | 0.13 kcal/mol
102 | AGTCTCACGTGGTTGA | 0.32 kcal/mol
103 | TGTGTCACGTGTAGTT | 0.09 kcal/mol
104 | GAGTGCACGTGTTTAT | -0.07 kcal/mol
105 | AGGTGCACGTGCAGAA | 0.04 kcal/mol
106 | ATGGCCACGTGGCGGG | -0.23 kcal/mol
107 | GGTTGCACGTGTCGGG | 0.16 kcal/mol
108 | AAGGTCACGTGTAGTT | 0.33 kcal/mol
109 | TGTATCACGTGTCTTT | 0.17 kcal/mol
110 | TGGTGCACGTGAATTT | 0.1 kcal/mol
111 | AGTTGCACGTGGTACG | -0.05 kcal/mol
112 | TGTATCACGTGAGTCG | 0.33 kcal/mol
113 | TGCATCACGTGGATAG | 0.21 kcal/mol
114 | TTTAGCACGTGAAGAG | 0.1 kcal/mol
115 | AGGTTCACGTGGAGTG | 0.25 kcal/mol
